From PubChem BioAssay AID1863 (Southern Research Specialized Biocontainment Screening …, 2009)
Among all 300,000 compounds or so, about 480 (0.16%) were called active. Inconclusive means that the source gave no clear call. Such entries were picked first, then a sample of the others.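 The calls were made as follows: active = inhibition over 29.93%, a cutoff 3 SD above the screen mean, later confirmed by dose response; inconclusive = inhibition over 29.93% but no dose response follow-up; inactive = inhibition at most 29.93% or unconfirmed.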

Assay: inhibitors of PhoP regulon expression, primary screen, Salmonella Typhimurium, GFP reporter (AID 1863);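 also: 0% = low Mg2+ inducing control and 100% = high Mg2+ repressing control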
Conditions: S. Typhimurium PhoP-regulated promoter GFP reporter, 4 h; at 50 µM; active compounds read high

| Structure (SMILES) | inhibition |
| --- | --- |
| C/C(=N\Nc1nc2ccccc2[nH]1)c1ccc(Cl)s1 | inactive: 31.6% |
| Oc1c(C(c2ccccn2)N2CCCCC2)cc(Cl)c2cccnc12 (stereo not drawn) | inconclusive: 68.3% |
| CC1=C(C(=O)O)N2C(=O)C(NC(=O)c3ccn(C)n3)C2SC1 (stereo not drawn) | inactive: 5.21% |
| CCOC(=O)N1CCN(S(=O)(=O)c2ccc(C(=O)N(CCN(C)C)c3nc4ccc(Cl)cc4s3)cc2)CC1 | inactive: 14% |
| CC1=C(C(=O)Nc2cccc([N+](=O)[O-])c2)C2(CCC(C)CC2)OC1=O (stereo not drawn) | inactive: -3.06% |
| Clc1ccc(-c2c[n+](Cc3ccc(Cl)c(Cl)c3)c3n2CCC3)cc1 | inconclusive: 49.2% |
| O=C(NC(=S)Nc1ccc(N2CCCCC2)cc1)c1ccc2c(c1)OCCO2 | inconclusive: 42.4% |
| COc1cc(N2CCCC2)c(OC)cc1/C=C1/NC(=S)NC1=O | inconclusive: 46.6% |
| O=C1/C(=C/c2c[nH]c3ccccc23)CCC/C1=C\c1c[nH]c2ccccc12 | inconclusive: 34.1% |
| Cc1cc(N=Nc2ccc(C)c(N=Nc3cc(C)c(N)cc3N)c2)c(N)cc1N | inconclusive: 15.9% |
| S=C(Nc1ccccc1)Nc1nc2ccccc2n1CCOc1ccc(Br)cc1 | inconclusive: 31.2% |
| O=c1c(Cl)c(N2CCN(c3ccc(F)cc3)CC2)cnn1C12CC3CC(CC(C3)C1)C2 | inconclusive: 30.9% |
| COc1ccc(S(=O)(=O)Nc2cc(Sc3ncn[nH]3)c(O)c3ccccc23)cc1 | inconclusive: 108% |
| COc1cc2ccc3c(CCN(C)C)cc(OC)c(OC)c3c2cc1OC | inactive: -2.35% |
| O=[N+]([O-])c1cc(CN2CCN(c3cccc(C(F)(F)F)c3)CC2)c2cccnc2c1O | inconclusive: 33.2% |
| CC1(C)CC(N2CCN(C(c3ccccc3)c3ccccc3)CC2)=CC(=[N+]2CCCCC2)C1 | inconclusive: 30.5% |
| Cc1ccc(C(=O)N/N=C\c2cc3c(cc2Br)OCO3)cn1 | inactive: 1.38% |
| CC(=O)Nc1cccc(NC(=O)CCNC(=O)c2ccccc2)c1 | inactive: 5.9% |
| Oc1c(C(c2ccccc2Cl)N2CCCC2)ccc2cccnc12 (stereo not drawn) | inconclusive: 91.5% |
| O=C(N/N=C/c1cc(Cl)cc(Cl)c1O)c1ccncc1 | inconclusive: 74.3% |
| CCC(=O)NC(c1cccs1)c1cc([N+](=O)[O-])c2cccnc2c1O (stereo not drawn) | inconclusive: 169% |
| Cc1[nH]c2ccccc2c1C(c1ccncc1)N1CCN(c2ccccc2F)CC1 (stereo not drawn) | inconclusive: 37.4% |
| CCOc1ccc2nc(NC(=O)C3CCN(S(=O)(=O)c4cnc[nH]4)CC3)sc2c1 | inactive: 1.27% |
